In all, about 18,000 sequences were measured (“TetR repression strength (sort-seq, GFP reporter)”: median about 0.23, highest 2% from about 0.68 on). Some of the results follow.

The record followed here is a collection of fitness landscapes (doi:10.1038/s41467-024-54723-y).

The experiment has as its target TetR (class B, Tn10) (UniProt P04483). In words: TetR repression strength (sort-seq, GFP reporter) (relative to tetO2 = 1); higher = stronger repression. The following applies: E. coli. An outline of the steps: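 Three independent transformations of E. coli SIG10-MAX were made with a low-copy plasmid library randomizing eight operator positions between a constitutive promoter and sfGFP, with constitutive TetR. Following 5 h at 37 °C in LB plus 50 µg/mL chloramphenicol, 10^6 cells went through FACS into 13 fluorescence bins, and each bin was sequenced by Illumina. Repression strength was defined as the top bin index plus one minus the read-weighted mean bin, divided by the unaltered operator's value. Averages included only members reaching ≥30 reads in all replicates with a CV ≤0.5.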
Chain of UniProt P04483 (P04483 whole entry): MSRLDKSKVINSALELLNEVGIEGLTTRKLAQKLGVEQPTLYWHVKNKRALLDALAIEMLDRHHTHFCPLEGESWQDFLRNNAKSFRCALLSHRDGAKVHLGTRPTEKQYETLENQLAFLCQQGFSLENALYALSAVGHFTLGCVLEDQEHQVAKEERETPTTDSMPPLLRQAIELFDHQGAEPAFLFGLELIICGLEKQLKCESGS
In turn, TCCCATGAAGTTGTCGAGA came in with a TetR repression strength of 0.0957. The result for TCCCGGACAGTGCGTGAGA reads 0.116. In turn, TCCCTTCAAGTGCTCGAGA gave a TetR repression strength of 0.24.

In the case of TCCCTCCGAGTGCATGAGA, the TetR repression strength stood at 0.364. TCCCGGACAGTATGGGAGA registered a TetR repression strength of 0.18. In turn, TCCCTGGCAGTAGTCGAGA registered a TetR repression strength of 0.0432. For TCCCCTCGAGTAACAGAGA, the TetR repression strength came to 0.415. TCCCTTATAGTTTGTGAGA showed a TetR repression strength of 0.319. The result for TCCCAGTCAGTGACTGAGA reads 0.453; that for TCCCATCCAGTTTGGGAGA, 0.191. To TCCCTCAAAGTTTATGAGA belongs 0.293. On to TCCCGTGCAGTAAAGGAGA, for which the TetR repression strength was 0.407. TCCCCAGGAGTGTTGGAGA yielded a TetR repression strength of 0.129. Consider TCCCGCTAAGTGGCTGAGA, for which the TetR repression strength worked out at 0.146. The sequence TCCCCTTAAGTGGGGGAGA gave a TetR repression strength of 0.302. The result for TCCCACGAAGTGCCTGAGA reads 0.486; that for TCCCGGAGAGTGGACGAGA, 0.203. In turn, TCCCTAAAAGTACGAGAGA had a TetR repression strength of 0.207. The result for TCCCTGAGAGTTATTGAGA reads 0.456. The result for TCCCTCATAGTGCTCGAGA reads 0.581. Sequence TCCCTCAGAGTGGACGAGA yielded a TetR repression strength of 0.314.

TCCCAGTTAGTTTGTGAGA: the TetR repression strength was found to be 0.072. The result for TCCCAGGCAGTGACGGAGA reads 0.294.

Consider TCCCCGGAAGTCTCGGAGA, for which the TetR repression strength came out at 0.384.

For the sequence TCCCCTGGAGTGGGCGAGA, the TetR repression strength came to 0.15. The result for TCCCCTAGAGTCGCGGAGA reads 0.358; that for TCCCTTCTAGTTTAAGAGA, 0.305; that for TCCCACTTAGTACTGGAGA, 0.289. To TCCCCCAGAGTCACGGAGA belongs 0.205. The result for TCCCGTACAGTGGGTGAGA reads 0.241; that for TCCCTCCAAGTGATCGAGA, 0.306.

With TCCCGTTAAGTATAGGAGA, the TetR repression strength was 0.0676. With TCCCTTATAGTGCATGAGA, the TetR repression strength turned out to be 0. The sequence TCCCGTCGAGTAGATGAGA registered a TetR repression strength of 0.14.

The sequence TCCCTCCGAGTTACGGAGA registered a TetR repression strength of 0.226.

With TCCCGGTCAGTGTAGGAGA, the TetR repression strength was 0.176. In turn, TCCCTTTAAGTCAGAGAGA came in with a TetR repression strength of 0.307. Sequence TCCCTGGAAGTGGGTGAGA registered a TetR repression strength of 0.205.

Regarding TCCCTGTGAGTTTTGGAGA, the TetR repression strength turned out to be 0.407. The result for TCCCGGTAAGTGGGTGAGA reads 0.141. For TCCCGATTAGTCTTTGAGA, the TetR repression strength is 0.0932. The sequence TCCCAGGAAGTACGTGAGA had a TetR repression strength of 0.0829. Regarding TCCCATACAGTGGTTGAGA, the TetR repression strength is 0.202. TCCCACTGAGTCGGAGAGA gave a TetR repression strength of 0.24.

On to TCCCAGTGAGTCCATGAGA, for which the TetR repression strength is 0.163.

As for TCCCTGACAGTGCAAGAGA, the TetR repression strength was determined as 0.393. The result for TCCCCGCGAGTGTTGGAGA reads 0.248; that for TCCCGCACAGTAGTAGAGA, 0.194; that for TCCCCAAGAGTGCTAGAGA, 0.282. To TCCCTAACAGTGTTCGAGA belongs 0.305.

Consider TCCCGGCTAGTGCTAGAGA, for which the TetR repression strength stood at 0.206. In turn, TCCCCAGTAGTTCGAGAGA yielded a TetR repression strength of 0.32. Regarding TCCCCATGAGTTGAAGAGA, the TetR repression strength was 0.435. With TCCCGGTTAGTAATTGAGA, the TetR repression strength was found to be 0.345. For the sequence TCCCCAAAAGTAAATGAGA, the TetR repression strength is 0.19. To TCCCATGAAGTTAAAGAGA belongs 0.0451; to TCCCTGCTAGTTGGCGAGA, 0.13.

On to TCCCACGAAGTCAACGAGA, for which the TetR repression strength stood at 0.422. For the sequence TCCCAATAAGTGGTTGAGA, the TetR repression strength was 0.197. The result for TCCCGTTAAGTATTGGAGA reads 0.254; that for TCCCGCGCAGTGGCAGAGA, 0.342. The sequence TCCCTAGAAGTGGCTGAGA returned a TetR repression strength of 0.146. Sequence TCCCCTTCAGTCTGAGAGA gave a TetR repression strength of 0.419. For TCCCAAGAAGTCGTGGAGA, the TetR repression strength came to 0.174.

The sequence TCCCTTGTAGTGATTGAGA displayed a TetR repression strength of 0.266.

Take TCCCCACTAGTAAATGAGA: the TetR repression strength worked out at 0.726. The result for TCCCCCCGAGTCGCGGAGA reads 0.237; that for TCCCGAGGAGTGGGGGAGA, 0.287; that for TCCCTATCAGTCGGTGAGA, 0.539. Take TCCCTCTAAGTCTGCGAGA: the TetR repression strength was found to be 0.276.

TCCCATTTAGTACAGGAGA had a TetR repression strength of 0.202. To TCCCCATTAGTGTGGGAGA belongs 0.217; to TCCCTTATAGTTGCCGAGA, 0.429. To TCCCCATCAGTTAATGAGA belongs 0.419.

In the case of TCCCTTGTAGTGGCAGAGA, the TetR repression strength turned out to be 0.0403. The result for TCCCTCTAAGTTCTCGAGA reads 0.341; that for TCCCGGACAGTAGAGGAGA, 0.104; that for TCCCTGTTAGTGATTGAGA, 0.441. The result for TCCCCTTTAGTCGGAGAGA reads 0.163; that for TCCCGCTTAGTGAAGGAGA, 0.345. To TCCCTCGGAGTTGGAGAGA belongs 0.318; to TCCCACAAAGTTAGCGAGA, 0.335; to TCCCGTTGAGTCACCGAGA, 0.397. TCCCGGCAAGTAGGCGAGA returned a TetR repression strength of 0.365. Turning to TCCCAGGTAGTTGAAGAGA, the TetR repression strength came out at 0.227. The result for TCCCGATGAGTGATCGAGA reads 0.216; that for TCCCCTCAAGTTACTGAGA, 0.571. The result for TCCCCTCTAGTGTTTGAGA reads 0.945. For the sequence TCCCGGGCAGTCATGGAGA, the TetR repression strength stood at 0.356. The result for TCCCGATTAGTGTGCGAGA reads 0.325; that for TCCCGGCGAGTGTCCGAGA, 0.00305. To TCCCCGTAAGTGCAGGAGA belongs 0.21; to TCCCTGGGAGTATGTGAGA, 0.444. TCCCAACAAGTTGCGGAGA registered a TetR repression strength of 0.236. TCCCGAAAAGTGTGGGAGA registered a TetR repression strength of 0.173.

TCCCAGAAAGTAAGCGAGA: the TetR repression strength was 0.126. As to TCCCACAGAGTGAGGGAGA, the TetR repression strength came to 0.402. To TCCCAACCAGTCTTTGAGA belongs 0.36. For the sequence TCCCAACGAGTGAATGAGA, the TetR repression strength worked out at 0.163.

Sequence TCCCGTGAAGTGATAGAGA returned a TetR repression strength of 0.216. The result for TCCCTTGAAGTGCAGGAGA reads 0.0288; that for TCCCGGCGAGTAAATGAGA, 0.218.
